From PubChem BioAssay (NCI)
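Step 1: Grow cells in 96-well plates. Step 2: Expose to compound for 48 hours at 5 concentrations. Step 3: Interpolate endpoints linearly; if unreached, use highest concentration. GI50: concentration for 50% inhibition of growth.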 The source holds more than one record for some entries. They are shown here; other results are not. An entry can have further records. For some of these results: A record mostly stands for its own series of concentrations, which the source does not state; a value can be the end of its range.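 The concentration for full growth arrest is given as TGI.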 For some of these results: The records of an entry repeat one measurement in other runs, samples, wells, individuals or studies. Marks in square brackets tell the records apart. Letters count within one entry.

Assays:
Assay in all cases: NCI anticancer screen, dose series, 48 h
[1] = tested on: HCT-15 colon
[2] = tested on: HOP-62 NSCLC
[3] = tested on: IGROV1 ovarian
[4] = tested on: MALME-3M melanoma
[5] = tested on: MCF7 breast
[6] = tested on: NCI-H460 lung
[7] = tested on: NCI/ADR-RES ovarian
[8] = tested on: OVCAR-5 ovarian
[9] = tested on: OVCAR-8 ovarian
[10] = tested on: SK-MEL-2 melanoma
[11] = tested on: SN12C renal
[12] = tested on: SNB-19 CNS
[13] = tested on: SW-620 colon
[14] = tested on: MOLT-4 leukemia
[15] = tested on: NCI-H23 lung
[16] = tested on: SNB-75 CNS
[17] = tested on: T-47D breast
[18] = tested on: NCI-H522 lung

Compound | TGI [1] | TGI [2] | TGI [3] | TGI [4] | TGI [5] | TGI [6] | TGI [7] | TGI [8] | TGI [9] | TGI [10] | TGI [11] | TGI [12] | TGI [13] | GI50 [14] | TGI [15] | TGI [16] | TGI [17] | TGI [18]
CC(C)SC1SCC2C(=O)N(C)C3(CC3C)C(=O)OCC(NC(=O)c3nc4ccccc4cc3O)C(=O)NC(C)C(=O)N(C)C1C(=O)N(C)C1(CC1C)C(=O)OCC(NC(=O)c1nc3ccccc3cc1O)C(=O)NC(C)C(=O)N2C (centres undefined) | 3.41 nM and > 100 µM | < 0.1 nM and 421 nM | 3.75 nM and 1.11 µM | < 0.1 nM and > 100 µM | < 0.1 nM and > 100 µM | < 0.1 nM and 70.6 nM | 76.7 nM and > 100 µM | < 0.1 nM and 1.3 µM | < 0.1 nM and 1.79 µM | < 0.1 nM and > 100 µM | < 0.1 nM and > 100 µM | 266 nM and > 100 µM | < 0.1 nM and > 100 µM | – | – | – | – | –
Cc1c2ncccc2c(C)c2c1[nH]c1ccc(O)cc12 | – | – | – | – | – | – | – | – | – | – | – | – | – | 5.1 µM and 377 nM | 26.2 µM and 277 µM | 17.3 µM and 500 µM | 25.1 µM and 500 µM | –
O=C1NC(=O)[C@@H](c2cn3c4c(cccc24)CCC3)[C@@H]1c1c[nH]c2ccccc12 | – | – | – | – | – | – | – | – | – | – | – | – | – | – | – | > 10 µM [sample A, 1 test] and 638 nM [sample B, 1 test] | – | 813 nM [sample A, mean of 2 tests] and 10.8 µM [sample B, mean of 2 tests]
